Data published in article PMC7819943, “Rice protein-binding microarrays: a tool to detect cis-acting elements near promoter regions in rice”.
The list shows a part of the results.

Molecular target: T1, OsWOX13 (Oryza sativa, UniProt Q5QMM3 1-267)
T1 sequence: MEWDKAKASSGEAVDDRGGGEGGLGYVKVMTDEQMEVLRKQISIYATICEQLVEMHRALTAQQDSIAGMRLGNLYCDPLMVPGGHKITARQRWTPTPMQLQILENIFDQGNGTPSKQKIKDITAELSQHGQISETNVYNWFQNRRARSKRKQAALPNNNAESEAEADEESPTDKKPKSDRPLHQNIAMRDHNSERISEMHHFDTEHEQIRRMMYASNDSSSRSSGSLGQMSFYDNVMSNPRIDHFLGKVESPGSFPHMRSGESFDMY
Assay: protein-binding microarray (RPBM); PBS, 2% BSA, 51.3 ng/ul salmon testes DNA, 50 uM zinc acetate, 200 nM TF, 25 C, 1 h; high values mean tight binding
Details: protein: recombinant; tags: N-terminal polyhistidine and DsRed monomer fusion (pET32a); label: CyDye5-dUTP incorporated in the synthesized complementary strand; 3' TTTTT single-stranded linker to array surface; dsDNA, one strand shown
In short: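 The binding signal for each feature is its fluorescence intensity in arbitrary units. An Axon 4000B scanner was used to read a custom Agilent array that had been made double-stranded with Cy5-dUTP primer extension, blocked with 2% BSA, incubated at 25 °C for 1 h with 200 nM protein in PBS, 2% BSA, salmon testes DNA and 50 µM zinc acetate, and washed. The protein was an N-terminal polyhistidine–DsRed transcription factor fusion from E. coli BL21-CodonPlus, purified on Ni–NTA.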

Sequence	binding signal
CCTTGATGATTGAACCAGTCAGCCCCAACATCTCTATAAACGGAGTCACCTAGTGCAG	25800 fluorescence intensity (a.u.)
TTTTCATATCATTTGATTCATTGTTAAATATACTTTCATGCGGAGTCACCTAGTGCAG	51700 fluorescence intensity (a.u.)
GGGAGCGGCGGAGGAGGAGGGCGCGGCGGCGGTGGGGTGGCGGAGTCACCTAGTGCAG	5290 fluorescence intensity (a.u.)
TGGATTAATTAGGCTCAAAAGATTCGTCTCGCGGTTTACACGGAGTCACCTAGTGCAG	18300 fluorescence intensity (a.u.)
GTTGTTAATTGTCTCGTGCATGTGATCCATGTATGCGCCACGGAGTCACCTAGTGCAG	25100 fluorescence intensity (a.u.)
CCTTCAATCAACACATACAATTTGGCAAAACTTACAAAATCGGAGTCACCTAGTGCAG	22700 fluorescence intensity (a.u.)
GGTTATAATTTAAATTCCGCTACTGACATTACTAATTCACCGGAGTCACCTAGTGCAG	15000 fluorescence intensity (a.u.)
AAAATATTAGAATGACTTACATTATGAAAGCAAGTTTCTTCGGAGTCACCTAGTGCAG	7040 fluorescence intensity (a.u.)
AATGTGTTAACTAATCAACTCGTCTCCCATCTCCTGCAAGCGGAGTCACCTAGTGCAG	5480 fluorescence intensity (a.u.)
CTCAAATTTATAGCTGAGACTGGTGAATATGAGATGGTTCCGGAGTCACCTAGTGCAG	5090 fluorescence intensity (a.u.)
CCCAACACAAATTAAAGATTATGACAACTGACAAGGTTCCCGGAGTCACCTAGTGCAG	11200 fluorescence intensity (a.u.)
ATGGACTATTAAATTGACTATAAATGATTTGGAGCTAGTACGGAGTCACCTAGTGCAG	22200 fluorescence intensity (a.u.)
TGTGATTTAGTTTGACCAGGGAGGCCATGATCTGCATGCACGGAGTCACCTAGTGCAG	15000 fluorescence intensity (a.u.)
AACCTATTTGCTCCATGATTTGATAATATGGTGGTACATTCGGAGTCACCTAGTGCAG	6770 fluorescence intensity (a.u.)
ATTATATAATCATTATTTATTTTATCATCACATGTTTTATCGGAGTCACCTAGTGCAG	3790 fluorescence intensity (a.u.)
ATTGGCTATTAAATTGACTATAAATGATTTTGAGCTGATACGGAGTCACCTAGTGCAG	20700 fluorescence intensity (a.u.)
GGATAACAAATAAACTTATTCCATCCAAACAGCTACCGTGCGGAGTCACCTAGTGCAG	3350 fluorescence intensity (a.u.)
CTAATTTTGAAGTTTAATTAATCATACGCTAATAGCTCATCGGAGTCACCTAGTGCAG	20500 fluorescence intensity (a.u.)
CCAATAATTGCGGTGGGGCCCACACCCAGCATACATAGCCCGGAGTCACCTAGTGCAG	18200 fluorescence intensity (a.u.)
ATCTACATGATTGTTTCAGATTATTGCTAATAATTCAGATCGGAGTCACCTAGTGCAG	31700 fluorescence intensity (a.u.)
CCGTTAAATTGAGTAGCTTAAATCATACAAGTATTAGTTGCGGAGTCACCTAGTGCAG	34800 fluorescence intensity (a.u.)

Sequence	binding signal
ATCTAATCGTTAATTAGGCTAGCGATCCGGTCGCTTTTGGCGGAGTCACCTAGTGCAG	12900 fluorescence intensity (a.u.)
AAGTGTGTTCCCTGATGATTAGTAGCTATTACTCTTCCAACGGAGTCACCTAGTGCAG	4790 fluorescence intensity (a.u.)
TTAAGTTGATGATATGTCTAGATTTATTGTACTAAAATGTCGGAGTCACCTAGTGCAG	3920 fluorescence intensity (a.u.)
CATCATTAAACTAATCATCCATACTGTTGAGGGTCCTAATCGGAGTCACCTAGTGCAG	4080 fluorescence intensity (a.u.)
AAGATTGGTTAATTACTATTTTACGAGCTCACATGTAATACGGAGTCACCTAGTGCAG	27900 fluorescence intensity (a.u.)
GATTAATTAGGTAGGGTTTCGTGAGAAACTCGTGAAGGGTCGGAGTCACCTAGTGCAG	12100 fluorescence intensity (a.u.)
CATTGAATTCAATTAATGGTTGGTTGAAAATCAAGATTCACGGAGTCACCTAGTGCAG	7480 fluorescence intensity (a.u.)
TTAATAAACTGACCGCATCACCCGCCGTACGTCGCCGTCGCGGAGTCACCTAGTGCAG	5290 fluorescence intensity (a.u.)
CTGACATATTAATTTTATTAATTTTGTTGAGTGATACATTCGGAGTCACCTAGTGCAG	21800 fluorescence intensity (a.u.)
ATCGGAAAACTTAATTATGTATGTAATCTCTCCCGGCCCCCGGAGTCACCTAGTGCAG	11800 fluorescence intensity (a.u.)
GATACAAATTAAACTCGACCCTATCTCGAGGGATATAAAGCGGAGTCACCTAGTGCAG	3240 fluorescence intensity (a.u.)
CATTCGCAGGATCGAGATTGATAACCGCAACTTTCCTGCACGGAGTCACCTAGTGCAG	5900 fluorescence intensity (a.u.)
AGTCAAAACATTTAGCATAATTGCAAATTTGCAAGTTGGGCGGAGTCACCTAGTGCAG	9050 fluorescence intensity (a.u.)
TAGATATAAATAAATTAGGAAAGATGATATGATGGATGGGCGGAGTCACCTAGTGCAG	8000 fluorescence intensity (a.u.)
GTAGACTAATAATAAAACAAATTACAGATTCTGCCTATAACGGAGTCACCTAGTGCAG	3280 fluorescence intensity (a.u.)
CTTTATAATAGTTAATTTATTTATTTATACTATTTTATAACGGAGTCACCTAGTGCAG	7550 fluorescence intensity (a.u.)
TTGGTATAATTTATCTGTAATACTAACAAATATTGTATAGCGGAGTCACCTAGTGCAG	4130 fluorescence intensity (a.u.)
GAGGGATTGAAGATTCGAATTTCGAAGTATTGAACCATTGCGGAGTCACCTAGTGCAG	13900 fluorescence intensity (a.u.)
CGAGTAATCATGCGTTAATGGTTTTATCGTTTTACGTGTGCGGAGTCACCTAGTGCAG	12300 fluorescence intensity (a.u.)
ACTGTTATAGCATTGATTATTTGCACTCTAGCTGCATGGTCGGAGTCACCTAGTGCAG	6060 fluorescence intensity (a.u.)
ATGTTGACTAATGTAAACGATTCAACATACTAGGATCATGCGGAGTCACCTAGTGCAG	5900 fluorescence intensity (a.u.)
